Data published in the supplement of paper PMC5655136.
Read counts after selection give these values, which scatter widely.

System: NB7
Test: fold depletion of shRNA, plasmid library share / infected cells without Dox share (9 days) (ratio); higher = more depleted after infection (more toxic, leaky expression from a Tet-inducible vector; NB7 is a neuroblastoma line without caspase-8)
Settings: shRNA pool: CD95L ORF + CD95L 3'UTR + Venus libraries
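Also: shRNA barcodes quantified by deep sequencing of PCR amplicons from cellular DNA, counts expressed as percent of each subpool, ratio averaged over two biological duplicates.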

Sequence | fold depletion of shRNA
TCTGGGCTGCCATGTGAAGAG | 0.821
TCTGGTCAATTTTGAGGAATC | 1.07
TCTGGTGATGATGGAGGGGAA | 1.5
TCTGGTTGCCTTGGTAGGATT | 0.985
TCTGTAGCTCCTCAACTCACC | 2.6
TCTGTGCCCAGAAGGCCTGGT | 36.7
TCTTACATGCATTTGAGGTCA | 3.98
TCTTACCAGTGCTGATCATTT | 1.27
TCTTAGTGCCTGAGAGTATTT | 7.36
TCTTCAAGGACGACGGCAACT | 1.75
TCTTCAAGTCCGCCATGCCCG | 0.457
TCTTCACTTCTAAATGCATAT | 0.727
TCTTGCAACAACCTGCCCCTG | 0.694
TCTTTCAGATACATGGTTGTG | 1.52
TCTTTCCATTATGATTCTTTG | 0.841
TCTTTGGAGAAGCAAATAGGC | 2.57
TCTTTGTTACAGGCACCGAGA | 3.76
TGAAAAAAAGGAGCTGAGGAA | 1.35
TGAAAAAGCAGCTACCAGGTG | 11.6
TGAAAACATGTAATAAAAAGT | 0.765
TGAAAAGGACACCTTTTAACT | 3.66
TGAAACTAACAGATAAGCAAG | 1.98
TGAAACTGGGCTGTACTTTGT | 0.949
TGAAAGAGGCCAATGCCCCAC | 1.28
TGAAATGAAAACATGTAATAA | 0.412

Sequence | fold depletion of shRNA
TGAACCAAGTGGACCTTGAGA | 6.4
TGAAGAAGAGAGGGAACCACA | 0.908
TGAAGAGGGAGAAGCATGAAA | 0.659
TGAAGCAGCACGACTTCTTCA | 0.127
TGAAGGGCATCGACTTCAAGG | 0.487
TGAAGTACATATTAGGAAAAT | 0.535
TGAAGTATAAGAAGGGTGGCC | 2.28
TGAATGCTTCCTGACAATCAA | 1.41
TGACAATCAACTCTAATAGTG | 1.47
TGACCACCCTGGGCTACGGCC | 1.68
TGACCCTGAAGCTGATCTGCA | 0.778
TGACCGCCGCCGGGATCACTC | 1.43
TGACCTGAGGATTTAAGGGAT | 0.695
TGACGGAAGAACATAGAACTC | 1.06
TGACTAAAGAGAGAATGTAGA | 0.483
TGAGACCACAGGGTTCAAAAT | 22.1
TGAGAGTATTTAGGCAGATTG | 2.77
TGAGCAAAGACCCCAACGAGA | 1.2
TGAGCAAGGGCGAGGAGCTGT | 0.5
TGAGCCACAAGGTCTACATGA | 0.724
TGAGCCAGACAAATGGAGGAA | 0.68
TGAGCCATCGGTGAAACTAAC | 3.85
TGAGCTACCAGTCCGCCCTGA | 2.09
TGAGCTACTGCACTACTGGGC | 4.48
TGAGCTCTCTCTGGTCAATTT | 0.798

Sequence | fold depletion of shRNA
TGAGGAAAGTGGCCCATTTAA | 3.98
TGAGGAACTCTAAGTATCCCC | 0.63
TGAGGAATCTCAGACGTTTTT | 2.13
TGAGGATTTAAGGGATGGAAA | 3.11
TGAGGGTCTTCTTACATGCAT | 1.24
TGAGGTCAAGTAAGAAGACAT | 1.28
TGATCATTTATATGTCAACGT | 1.46
TGATCTGCACCACCGGCAAGC | 1.52
TGATGAGCTACTGCACTACTG | 1.63
TGATGATGGAGGGGAAGATGA | 2.9
TGATGGAGGGGAAGATGATGA | 1.74
TGATGTTTTCCTATAATATAA | 1.41
TGATGTTTTTCATGGTTCTGG | 1.22
TGATTCTTTGTTACAGGCACC | 5.99
TGATTGTCAGCTACTAATGAT | 3.14
TGCAATTGTAGGGGTGTGTGT | 1.02
TGCACACAGCATCATCTTTGG | 1.49
TGCACCACCGGCAAGCTGCCC | 0.695
TGCACTACTGGGCAGATGTGG | 0.899
TGCAGCAGCCCTTCAATTACC | 3.27
TGCAGTGCTTCGCCCGCTACC | 0.857
TGCATAATAAGCTAAAGAGGC | 1.75
TGCATATCCTGAGCCATCGGT | 0.96
TGCATTTGGTCAAGATTTTGA | 2.02

Same assay, conditions: shRNA pool: CD95 ORF + CD95 3'UTR + Venus libraries

Sequence | fold depletion of shRNA
TCTGGATTTAGGAATTGCTCT | 1.43
TCTGGCATCTAACATATGATT | 1.44
TCTGGTTCTTACGTCTGTTGC | 2.27
TCTGTAAATGTAAACTGTGAA | 0.781
TCTGTAGTATGAATGTAATCA | 0.922
TCTGTTGCTAGATTATCGTCC | 1.02
TCTTAATAGCTGGCTGTAAAT | 2.08
TCTTACGTCTGTTGCTAGATT | 1.71
TCTTATTTTTCCCCCACCCCC | 5.04
TCTTCAAGGACGACGGCAACT | 1.01
TCTTCAAGTCCGCCATGCCCG | 0.798
TCTTCCAAATGCAGAAGATGT | 0.937
TCTTCTTCAAGGACGACGGCA | 1.35
TCTTCTTCTTTTGCCAATTCC | 0.803
TCTTCTTTTGCCAATTCCACT | 1.25
TCTTGCAGAGAAAATTCAGAC | 1.3
TCTTTCTCAGGCATCAAAAGC | 1.51
TCTTTGAAAGTTTGTATTAAA | 1.54
TCTTTGTACTCTTGCAGAGAA | 0.601
TCTTTTGCCAATTCCACTAAT | 4.31
TGAAAAACAACAAATTCAGTT | 1.04
TGAAACAGTGGCAATAAATTT | 1.24
TGAAAGATTAAGATTATGCTC | 0.825

Sequence | fold depletion of shRNA
TGAAAGTTTGTATTAAATGTG | 1.31
TGAAATATCAGTTACTGAACA | 0.781
TGAAATCCAAAGCTTGGTCTA | 11.7
TGAACACTGTGACCCTTGCAC | 2.37
TGAACATGGAATCATCAAGGA | 1.51
TGAACCAGACTGCGTGCCCTG | 0.942
TGAACCCATGTTTGCAATCAA | 0.933
TGAACCGCATCGAGCTGAAGG | 0.985
TGAAGAGAAAGGAAGTACAGA | 0.8
TGAAGAGCCAACATATTTGTA | 0.852
TGAAGATAGTTATAAACTGAA | 0.844
TGAAGCAGATACCTGGAACCA | 1.46
TGAAGCAGCACGACTTCTTCA | 0.185
TGAAGCCAAAATAGATGAGAT | 1.29
TGAAGCTGATCTGCACCACCG | 2.34
TGAAGGACATGGCTTAGAAGT | 1.5
TGAAGGGCATCGACTTCAAGG | 0.761
TGAAGTTCGAGGGCGACACCC | 1.44
TGAATCAATAGAAGAAGCTAT | 0.94
TGAATCTCCAACTTTAAATCC | 2.06
TGAATGTAATCAGTGTATGTT | 1.06
TGAATTCACATAGAAAACATT | 0.681
TGAATTTTAAGAAATAATATT | 1.07

Sequence | fold depletion of shRNA
TGACACATTGATTAAAGATCT | 0.861
TGACACTAAGTCAAGTTAAAG | 0.953
TGACCACCCTGGGCTACGGCC | 1.78
TGACCCTGAAGCTGATCTGCA | 1.16
TGACCCTTGCACCAAATGTGA | 1.03
TGACCTTTTGCTGAAATATCA | 0.935
TGACTATTATATATGTGTATG | 1.02
TGACTCAGAAAATTCAAACTT | 0.847
TGACTGACATCAACTCCAAGG | 2.67
TGACTTGAGTAAATATATCAC | 0.826
TGAGAAGATCATATTTATGTA | 0.967
TGAGACTCAGAACTTGGAAGG | 0.582
TGAGATCAAGAATGACAATGT | 3.58
TGAGCAAAGACCCCAACGAGA | 0.961
TGAGCAAGGGCGAGGAGCTGT | 0.558
TGAGCAGGAGAGTATTACTAG | 1.79
TGAGCTACCAGTCCGCCCTGA | 0.953
TGAGGAAGACTGTTACTACAG | 2.27
TGAGTAAATATATCACCACTA | 0.774
TGAGTATATGCAATTAGTGTT | 1.14
TGAGTGCAGAATTTAAATAAG | 1.02
TGATAAAATAGATTCTTATTT | 0.972
TGATAATTCTAGAGATTTTAC | 0.94

Sequence | fold depletion of shRNA
TGATCTGCACCACCGGCAAGC | 1.76
TGATGTTGACTTGAGTAAATA | 1.41
TGATTAAAGATCTCAAAAAAG | 0.975
TGATTCTGCCTCCAAGGATGT | 1.36
TGATTCTGTAGTATGAATGTA | 1.29
TGCAAAGAGGAAGGATCCAGA | 0.718
TGCAATCAAAGATGATAAAAT | 0.808
TGCAATTAGTGTTTGAAAAGA | 0.948
TGCACACTCACCAGCAACACC | 0.745
TGCACAGTTTATTGGTGTCAT | 2.33
TGCACCAAATGTGAACATGGA | 2.32
TGCACCACCGGCAAGCTGCCC | 1.57
TGCACCCGGACCCAGAATACC | 1.41
TGCAGAAAGCACAGAAAGGAA | 1.19
TGCAGAAGATGTAGATTGTGT | 1.28
TGCAGAATTTAAATAAGGCTC | 1.3
TGCAGAGAAAATTCAGACTAT | 1.05
TGCAGAGGATGAAAGATTAAG | 1.17
TGCAGATGTAAACCAAACTTT | 0.676
TGCAGCTCGCCGACCACTACC | 1.49
TGCAGTGCTTCGCCCGCTACC | 1.3
